Values of other authors in patent publication US4419349A (priority 1978, dated 1983).

system: interferon induction; details: 56 °C, 5 hours; cited from earlier work

Row | Molecule | IF-inducing activity after heating
1 | phytohemagglutinin | inactivated
2 | pokeweed mitogen | inactivated

same assay, conditions: cited from earlier work

Row | Molecule | IF-inducing activity
3 | CC(C)=CC(=O)c1occc1C [naginata ketone] | no IF-inducing activity
4 | CC(C)CCC(=O)c1ccoc1 [perilla ketone] | no IF-inducing activity
5 | C=C(C)C1CC=C(C=O)CC1 (stereo not shown) [perilla aldehyde] | no IF-inducing activity
6 | C=C(C)[C@@H]1CC=C(C)CC1 [Sample 1-limonene, 1-limonene] | no IF-inducing activity
7 | CC(C)[C@@H]1CC[C@@H](C)C[C@H]1O [Sample 1-menthol, 1-menthol] | no IF-inducing activity
8 | O=C(/C=C/c1ccc(O)cc1)OC[C@H]1O[C@@H](Oc2cc3c(O[C@@H]4O[C@H](CO)[C@@H](O)[C@H](O)[C@H]4O)cc(O)cc3[o+]c2-c2ccc(O)c(O)c2)[C@H](O)[C@@H](O)[C@@H]1O [shisonin] | no IF-inducing activity
9 | CC1=CCC2CC1C2(C)C (stereo not drawn) [α-pinene] | no IF-inducing activity

same assay, conditions: literature statement; cited from earlier work

Row | Molecule | IF-inducing activity
10 | dihydroperilla alcohol | no IF-inducing activity
